Measured values: paper PMC4242493
The list shows a part of the results. The list includes weakly bound sequences.

Molecular target: MaxL homodimer (UniProt P61244)
Test: universal protein-binding microarray (PBM)
Conditions: PBS-based mixture, 10 nM His-tagged protein dimer, 2% milk, 200 ng/uL BSA, 50 ng/uL salmon testes DNA, 0.02% TX-100; detection with Alexa 488 anti-His …; high values mean tight binding; most listed sequences are background and not binding sites; double strand, one strand shown

Sequence of UniProt P61244 (P61244 whole entry): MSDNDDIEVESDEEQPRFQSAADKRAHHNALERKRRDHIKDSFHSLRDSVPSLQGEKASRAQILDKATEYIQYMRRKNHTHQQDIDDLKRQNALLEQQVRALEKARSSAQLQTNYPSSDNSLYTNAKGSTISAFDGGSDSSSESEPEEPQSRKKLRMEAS

Sequence	binding signal (normalized occupancy)
CACTAGTA	0.077
CGCAATTC	0.074
AGATGGCA	0.0763
AAACACAT	0.0922
CAGTCAAA	0.0697
ATGGCTAC	0.082
AGTAACAT	0.0861
ACTGGCCT	0.073
AATGAGGA	0.0838
AATAACTG	0.0777
AGCAGGGA	0.0689
GATTAGCA	0.076
CGTTAGTA	0.0742
ATCAGCAT	0.0875
CAGTGCCA	0.0744
ATAGAGCA	0.0801
CCTGCTTA	0.077
GACGGCCA	0.0729
CTAAGCGC	0.0684
AGCCAAGG	0.0712
CGGAGTTA	0.068
GCCCTCGC	0.0764
GATCTACA	0.0754
CCAGAAAG	0.0697
CTGGAAAA	0.071

Sequence	binding signal (normalized occupancy)
CTGGACGA	0.0734
TGGATACA	0.0858
CACGAAAA	0.077
GTCAGCAA	0.0749
AGTTGCAA	0.071
CACTAGAG	0.0713
GTCTTGTA	0.0743
CCTCTATA	0.0791
GGACAATA	0.0766
TCAGTAGA	0.0737
CATAACGG	0.0767
TCTAGCCA	0.0723
GATGAAAC	0.0811
GAACCAAA	0.0723
CAGAAAAG	0.0707
AGCGGTCG	0.0685
CTGGAACA	0.0768
CAGTAACA	0.0736
ATAGGACC	0.0826
GCGTCAGA	0.0724
ACAGAGCT	0.0706
CCCCTGCC	0.0784
ACAAACGA	0.0724
ACACAACA	0.0738
AAATAACG	0.0835

Sequence	binding signal (normalized occupancy)
ATCCAAGG	0.071
ACCAGTAG	0.0677
AAGATTCG	0.0704
ATGTGAAA	0.0872
ACTGCTCC	0.0737
AGAAATCG	0.0655
AGCGCAGA	0.0694
AGAAGTTG	0.0718
GATGTACA	0.0827
AAGCGATG	0.0743
ATCTCTAA	0.072
GAACAAGA	0.0749
CACTCATG	0.0894
ACACTAAG	0.0752
CAAATCGA	0.0705
CGGTACGA	0.0718
ACTCCAAT	0.0703
CCTTACCG	0.0666
CACCGATG	0.0772
ACCCATGC	0.108
GATCGTAC	0.0747
TCTCGAGA	0.0789
CGACGCCC	0.0727
CCGCGACA	0.0737
GACAAATC	0.0766

Sequence	binding signal (normalized occupancy)
CAAGGTTC	0.0697
CGCGGGCA	0.0751
AAGAGCCC	0.0665
AACGACGG	0.0774
AAACCTCT	0.0716
ACTCATAA	0.0817
AAACCGCG	0.0734
AGCAGGGG	0.0745
AGGTTTGA	0.0746
AAGAGGTG	0.0728
GGGATCGA	0.0761
GGTGAGAC	0.0786
GACAGGGA	0.072
TGGCTAAA	0.074
GGAGTAAA	0.0761
GGAACGGA	0.0714
AAGTTAGC	0.0702
CTTTGTCC	0.0747
TATAACCA	0.087
CGCGCTAG	0.0735
CATGTCTC	0.0933
CAATCATC	0.0819
ACTATAAG	0.0855
GAGTTCGC	0.0757
GGCTTTCA	0.0757

Sequence	binding signal (normalized occupancy)
AATTCTCA	0.0751
CGTACAAG	0.0756
GCCTAACA	0.0769
CTAGATTC	0.0781
AGGGCGGA	0.0667
CTTCTACA	0.0795
CGCGCCCC	0.0717
ACGTGTGA	0.105
CTCCTCTC	0.0689
ACCTACTC	0.0755
GACCTTAA	0.0751
ATTTAAAG	0.071
ATCACCGG	0.077
AGTACGTG	0.0845
GGAGACCA	0.0745
TAGGAAGA	0.0708
CTAGGTAC	0.0728
ATCTTTAC	0.0755
CACACTAC	0.0839
AGAAACGC	0.0715
AAGAAGGT	0.0733
GGGTAGCA	0.0763
ACGATTTA	0.0733
AGTTTCCC	0.0693
GCCCCTTA	0.073

Sequence	binding signal (normalized occupancy)
TCCTGAGA	0.0702
AAACTACC	0.0713
AATAATTA	0.0764
TAATGACA	0.0798
CGTCCGAG	0.0695
ACCGTTAG	0.0758
AAATCAAA	0.0712
AGACATAG	0.0766
CAGTGCGG	0.0659
GATTTTTA	0.0759
CACTCTGC	0.0776
ACCCATAG	0.0814
AGCGCAAG	0.0688
AGTAATAC	0.0749
AGCTGCCT	0.0684
GCGGTTAC	0.0741
CAGCTTCC	0.0716
GGGGTACA	0.0806
GCTGTATA	0.083
ACCCAGCC	0.0724
CAGATAAC	0.0792
GATTCCTA	0.0857
GAGGCTGA	0.0724
ACATCTAC	0.0773
ATATCTGC	0.0757

Sequence	binding signal (normalized occupancy)
CTTAGATC	0.0787
ATCCGGTA	0.0792
CCCTGGTA	0.0757
CATATTTA	0.0818
CTTATATC	0.0785
CATTTGAA	0.0763
CACACCCC	0.0902
CCGCTTAC	0.0724
ATGCAACC	0.0825
ATTCCTCC	0.0777
GAGTTGGA	0.0705
CGGTCTAC	0.0717
CGTGCGAC	0.0878
AAGGACAT	0.0795
TTCAAAAA	0.0747
ACCCTCGG	0.0677
CGTCATGA	0.0825
TGCTTCCA	0.0807
AGCTCAAG	0.0672
CGAACAAC	0.077
CTGAACTA	0.0705
CATTAATC	0.0784
ACTGTCGC	0.0727
CGACCCCC	0.0803
AATCCACA	0.0813

Sequence	binding signal (normalized occupancy)
AAACTGGT	0.0753
ACCGTTGG	0.0736
AATCCGAC	0.0705
GTGGTAAC	0.0837
AGAAGCCT	0.0722
ACAAGGTC	0.0805
GATAGCAC	0.0804
CTCCTTTA	0.0648
GAGTCCAC	0.0828
GACTAACA	0.0705
ATTTGGCA	0.0721
CCCAACGG	0.0681
CTGCCTTC	0.0681
AACTATCA	0.0785
AGTCGAAT	0.0707
GGCTGTAA	0.0715
GTAAGAGA	0.0798
CCCTGCGG	0.0745
ACGGCTAG	0.0706
GAGTATAC	0.0758
CGGAGAGA	0.0713
CTTAGGAC	0.0739
CTCTACAC	0.0757
GATTAACA	0.0793
GAAGTAGC	0.0734

Sequence	binding signal (normalized occupancy)
ACCTAGGC	0.0711
AGTGGAAG	0.0706
GTATCCGA	0.0719
AGAGATAA	0.0771
CATGGAAC	0.0836
GGGGACCA	0.08
GTCAAACA	0.0807
AGACTACG	0.0723
AAGTGTTG	0.0719
AGAAAACC	0.0706
GCCAAAAA	0.0676
ACAGAGGA	0.0701
ATCCCGTA	0.0775
AATTGATC	0.0748
ACCAGGGA	0.0753
CGGTTAAA	0.0714
GGACACCA	0.0765
AACTCCGC	0.0703
GCTGCTAA	0.0678
ACCTCGAG	0.0843
CGCGCGAG	0.0787
ACTGAAAT	0.0694
AGTAGACT	0.0733
GATCGGCC	0.069
TGGACTAA	0.0709

Sequence	binding signal (normalized occupancy)
AACTCCCA	0.0735
ATCATGTA	0.0811
GCGTATCC	0.0747
GCATTACC	0.0757
GCGGGCTA	0.0715
TAGGACCA	0.0741
ATATGCAC	0.092
AGAACGAT	0.0727
CAAATCGC	0.0728
ATTCCAAA	0.0752
AAACTGAC	0.0689
ACTAGCAA	0.0719
CCTCGAAC	0.0701
ATCAAACG	0.0782
ACGCAGTG	0.0735
GAACCGAC	0.0685
ATCGCGAC	0.0736
ACACGTAT	0.0833
GAAAACAA	0.0774
TAGAACTA	0.0696
ATCACTGA	0.073
AACGAGCG	0.0748
CTCGATAC	0.0749
CATCAATG	0.0829
AAGTTAGA	0.0733

Sequence	binding signal (normalized occupancy)
AACGCACC	0.0799
CGAAGATA	0.0773
CTTAAACA	0.0714
CTGCTTTC	0.0688
ATCCGTTA	0.076
AAGAGGAC	0.0753
CGCGGCGC	0.0731
CACCAGCA	0.0803
GAGGATGC	0.081
AAGGTCGT	0.0721
ATATACCC	0.0842
GATTCGCA	0.077
AGGTATCA	0.0877
CCTCAACG	0.078
AGCAAAGA	0.0734
GTAGACCA	0.0778
GTAAACAC	0.0782
ACCGATTA	0.0723
ACGAACAT	0.0821
GGCCTACC	0.0704
GCCTGAGC	0.0708
CTTCGAAG	0.0673
ACTCGTTG	0.0775
TAGCCCCA	0.0839
ATTCTTGC	0.07

Sequence	binding signal (normalized occupancy)
CCGCTGGA	0.0679
AATCTCGA	0.0757
GGCAGGCA	0.0727
GACCTCTC	0.0709
ATTACGGC	0.0711
AGAATGCT	0.0773
TATCGACA	0.0824
ACAAGCTG	0.0702
ATTCACTA	0.0794
CGCGCAAA	0.0707
TAGCTGGA	0.0696
AAATGATA	0.0799
GTAGCCTA	0.0745
GCCGGGAA	0.0691
ATTCGTTG	0.0761
AAACCGAA	0.0754
CCGGGGCC	0.0676
ATCATGCC	0.0958
CTCGATTA	0.0773
CCCGATCC	0.0759
AATCGCGG	0.0703
CCCCATAG	0.0807
AACAAATT	0.0736
ACCGGGCA	0.0707
ACCGCTAG	0.0695

Sequence	binding signal (normalized occupancy)
AAATGATT	0.0757
ACATTAAA	0.0799
CTTCAGGC	0.0728
AGTGATTC	0.0729
ACGATATG	0.083
ATAACAAC	0.0771
ATCGCCAG	0.0753
CTACTGAG	0.0688
TGCCATAA	0.0864
ATAGCTCA	0.0729
GGGGGAAA	0.0757
GTTGCGCA	0.0736
ACTATCCC	0.078
AAGCGTGC	0.104
ATCGCGGC	0.0711
AACGAAGT	0.0697
AAGGATCC	0.0705
CGAATAAC	0.0806
ATATGATC	0.0857
TCCTAAAA	0.0736
GCATATGA	0.0934
ACCATTCC	0.0757
GCTCGTGA	0.0843
ACCGGCAA	0.0701
CACCGATA	0.0716

Sequence	binding signal (normalized occupancy)
ACGCGTCC	0.0815
AGGATTTG	0.0735
CTTCCCGC	0.0751
AACTGCAA	0.0708
CCAGCGTA	0.0722
CTGAGGTA	0.0725
ATTTCTGG	0.0774
AAGAAGCC	0.0665
AGCCCTGG	0.07
AATGCTAC	0.0772
CTATGGGC	0.0769
ACCCAACC	0.0807
ATTTCGAC	0.0789
ACTCTCAT	0.0816
CGTCCGTC	0.0701
ATAACGAC	0.0827
CTTACCAA	0.0772
ACCCGGAG	0.0736
TCTAGACA	0.0768
